In PubChem BioAssay AID1508624 (National Center for Advancing Translational Sciences (NCATS), 2021):
The campaign covered roughly 48,000 compounds. About 120 (0.25%) were called active. Inconclusive results (about 4%) are left out. Calls come from the whole dose curve; as a rule, active = well fitted activation curve with a large enough effect; inconclusive = small, poorly fitted or top-dose-only effect, or another doubt; inactive = no such curve, though single readings can be large or run the other way. Some of the results follow.

Assay: Primary qHTS for Identification of Small Molecule Activators of Huntingtin-Antisense Promoter Activity; note: nearly all actives have a fitted effect of over 55% in size
Conditions: HEK293 HTT-AS promoter firefly luciferase reporter, 24 h; series mostly up to 57.5 µM; activity change, positive = activation: at the top concentration
Method in brief: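 Quantitative HTS used concentration series of up to 57.5 uM final on HEK293 luciferase reporter cells, 24 h at 37 degrees C. Readout was Dual-Glo firefly luminescence.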

Activity change, positive = activation, inactive:
Cn1c(=O)cc(OCC(=O)NCc2ccc(F)cc2Cl)c2ccccc21 -15%
CCc1ccccc1Nc1nn2c(=O)c3ccc(C(=O)NC4CCCCC4)cc3nc2s1 -8.96%
COc1cc(OC)c(NC(=O)c2c3c(nn2C)-c2ccccc2SC3)cc1Cl -31.5%
Cc1ccn2c(=O)c(C(=O)NCc3ccccc3Cl)c(O)nc2c1 1.7%
COc1ccccc1OCC(O)CN1CCN(CC(=O)Nc2c(C)cccc2C)CC1 (stereo not drawn)
COC(=O)C(CCSC)NC(=O)c1cc2c(n(-c3ccc(OC)cc3)c1=O)CC(C)(C)CC2=O (stereo not drawn) -8.3%
COc1cccc(C(=O)Nc2ccc(NC(=O)c3ccc(C(C)(C)C)cc3)cc2)c1 -33.5%
COc1cccc2c1Oc1ncccc1N(c1ccc(C(=O)NCc3cccc(C)c3)s1)C2 -28.1%
CC1(C(=O)Nc2ncc(Cc3ccc(Br)cc3)s2)Cc2ccccc2C(=O)O1 (stereo not drawn) -47.1%
Cc1ccc(N2CC(NC(=O)C3CCCCC3)CC2=O)cc1C (stereo not drawn) -10.9%
CCN(c1ccccc1)c1nnc(NC(=O)Nc2ccc(C)cc2)s1 0.317%
O=C(OCc1cc(=O)n2nc(-c3cccs3)sc2n1)c1ccc(F)cc1 5.56%
CCOc1ccc(C(=O)Nc2cccc(-c3nc4cccnc4s3)c2C)cc1OCC -18.9%
Cc1ccc2nc3c(cc(C#N)c(=O)n3-c3nnc(SCc4ccccc4Cl)s3)c(=O)n2c1 -1.52%
COc1ccc(/C=C/c2nc(C#N)c(N3CCC(C)CC3)o2)cc1OC -29.1%
COc1ccc(Nc2ncc3c(n2)CCN(Cc2ccc(Br)s2)C3)c(OC)c1 19.2%
CSc1ccc(CCNC(=O)c2ccc(-n3c(C)cc4c3CCCC4)cc2)cc1 15.2%
CC(=O)N1N=C(c2ccc(C)cc2)CC1c1cn(-c2ccccc2)nc1-c1cccs1 (stereo not drawn) -13.7%
Cc1ccc2nc(-c3ccc(Cl)c(NC(=O)c4ccc(Br)o4)c3)oc2c1 11%
CSc1nc2c([nH]c3ccccc32)c(=O)n1-c1ccc(C)cc1 -30%
CSc1ccc(CCNC(=O)c2ccc(CS(=O)Cc3ccc(Cl)cc3)o2)cc1 (stereo not drawn) -32.9%
O=C(COCc1cc(-c2ccc3c(c2)OCO3)on1)NCc1ccc(F)cc1 0.984%
Cc1ccc(C)c(N2CCN(S(=O)(=O)c3cc(C(=O)Nc4cc(Cl)cc(Cl)c4)ccc3F)CC2)c1 -3.71%
CCc1ccc2c(c1)NC(c1cccnc1)=NC(c1ccc(C(C)(C)C)cc1)=N2 -40.2%
Cc1ccc(Cl)cc1NC(=O)c1cc(S(=O)(=O)N2CCCCCC2)cn1C -27.6%
Cc1cccc(-c2nc(CSCC(=O)N3CCN(c4cccc(C)c4C)CC3)c(C)o2)c1 -30.4%
COc1cc(C2CC(=O)Nc3c2c(C)nn3-c2nncc(-c3ccccc3)n2)cc(OC)c1OC (stereo not drawn) -11.9%
O=C(Nc1ccccc1Cl)c1cc2c(-c3ccccc3)nn(-c3ccccc3)c2s1 3.19%
COc1ccc(CCCc2nnc(SCC(=O)Nc3ccc(C)cc3)o2)cc1C -4.68%
Cc1ccc(-n2ncc(C(=O)NC3CCN(Cc4ccccc4)CC3)c2C2CCN(C(=O)OC(C)(C)C)CC2)cc1C -24%
O=C(Nc1ccc2nc(SCC(=O)N3CCCc4ccccc43)sc2c1)c1ccc(Cl)cc1 -30%
CCC(C(=O)NCCc1cc(OC)ccc1OC)n1nc(C)c2c(C)n(-c3ccccc3)nc2c1=O (stereo not drawn) -11.6%
CCOc1ccccc1NC(=O)Cn1c(=O)n(Cc2cccs2)c(=O)c2cccnc21 -22.2%
Fc1ccc(-c2nn(-c3ccc(Cl)cc3)c3c2cnc2ccc(F)cc23)cc1 -4.42%
COc1ccc(-n2c(=O)c3ccccc3n(Cc3ccccc3Cl)c2=O)cc1 -22.4%
CC(Sc1nc(=O)cc(N)n1CCc1ccccc1)C(=O)Nc1cccc(Cl)c1 (stereo not drawn) -4.16%
Cc1ccc(C)c(CN2C(=O)c3ccccc3S(=O)c3ccc(C(=O)N4CCOCC4)cc32)c1 (stereo not drawn) -23.6%
COc1ccc(C(=O)Nc2nc3n(n2)C(c2ccc(Cl)cc2)C=C(c2ccccc2)N3)cc1OC (stereo not drawn) -20.2%
COc1ccccc1N1CCN(S(=O)(=O)c2c(C)sc3ncn(CC(=O)Nc4ccc(C)cc4Br)c(=O)c23)CC1 13.7%
Cc1ccc(Nc2sc(C(=O)c3ccc(F)cc3)c(N)c2S(=O)(=O)c2ccc(C)cc2)cc1 -20.4%
Cc1ccc(S(=O)(=O)c2nnn3c2nc(N2CCOCC2)c2sccc23)cc1C -12%
CCN(CC)S(=O)(=O)c1ccc2c(c1)c(=O)c(C(=O)N1CCN(c3cccc(Cl)c3)CC1)cn2C -7.49%
CCc1ccc(C(=O)c2cn(CC(=O)Nc3ccc4c(c3)OCO4)c3ccc(F)cc3c2=O)cc1 -36.4%
Cn1c(=O)oc2cc(S(=O)(=O)NC(Cc3ccccc3)C(=O)NCc3ccccc3Cl)ccc21 (stereo not drawn) 9.18%
CCOc1ccccc1CNC(=O)C1CCN(c2nc3ccccc3nc2C(F)(F)F)CC1 8.47%
COc1ccc(-c2n[nH]c3c2cnc2cc(OC)c(OC)cc23)cc1 1.32%
Cc1ccc(CSC2=Nc3ccccc3C3=NC(CC(=O)NCc4ccc5c(c4)OCO5)C(=O)N23)cc1 (stereo not drawn) 0.334%
COc1cc(OC)c(NC(=O)c2ccc3c(c2)N(Cc2ccc(C)cc2)CCS3)cc1Cl -9.5%
Cc1cccc(C2N=C(N)Nc3nc4ccccc4n32)c1 (stereo not drawn) -18.7%
COc1cc(C(=O)N2CCN(C(=O)COc3cccc(C)c3)CC2)cc(OC)c1OC 13.2% [at 11.5 µM, percent change from vehicle, -100% = no light]
COc1ccc(N2CCN(C(=O)c3cnn(-c4ccc(OC)cc4)c3C3CCN(C(=O)OC(C)(C)C)CC3)CC2)cc1 0.853%
Cc1cccc(C(=O)N(Cc2ccccc2F)C2CCS(=O)(=O)C2)c1 (stereo not drawn) -7.39%
C=CC[C@@H]1C=C(C)C[C@H](C)C[C@H](OC)[C@H]2O[C@@](O)(C(=O)C(=O)N3CCCC[C@H]3C(=O)O[C@H](C(C)=C[C@@H]3CC[C@H](O)[C@H](OC)C3)[C@@H](C)[C@@H](O)CC1=O)[C@@H](C)C[C@@H]2OC -26.4%
COC(=O)c1c(NC(=O)COc2cccc(C(F)(F)F)c2)sc2c1CCCC2 9.49% [at 11.5 µM, percent change from vehicle, -100% = no light]
COc1ccc(Cc2nc3c4cnn(-c5cccc(F)c5)c4ncn3n2)cc1 -12.8%
CCCNC(=O)N1CCCN(S(=O)(=O)c2ccc3c(ccn3CC)c2)CC1 -14%
Cc1c(Cl)cccc1-c1ccc(/C=C(\C#N)c2nc3ccccc3[nH]2)o1 -10.6%
C=C[C@@H]1CN2CCC1C[C@H]2[C@H](O)c1ccnc2ccc(OC)cc12 (stereo partly drawn) -11.5%
CCCCOc1cccc(C(=O)N2CCN(CCc3ccncc3)CC2)c1 -11.4%
CCN(CC)c1ccc(NS(=O)(=O)c2cc(-c3cc(C)no3)ccc2C)c(C)c1 -32.9%
Cc1ccc(CNC(=O)C2CCCN(c3ncnc4onc(-c5ccc(F)cc5)c34)C2)cc1 (stereo not drawn) -12%
CN1CC(=O)Nc2cc(C(=O)O)ccc21 -13.7%
COc1ccc(OC)c(NC(=O)Cn2c(=O)cc(C)c3c(C)nn(-c4cccc(Cl)c4C)c32)c1 -15.6%
O=C(CN1C(=O)CCSc2ccccc21)Nc1ccc(C(F)(F)F)cc1 -41.5%
CCOc1ccccc1C(=O)Nc1ccc(S(=O)(=O)N(Cc2ccccc2)c2ccccc2)cc1 19.9% [at 11.5 µM, percent change from vehicle, -100% = no light]
CCOC(=O)c1ccccc1NC(=O)Cn1ccn2nc(-c3ccc(OCC)cc3)cc2c1=O -8.5%
Cc1ccc(-n2cc(C(=O)OCc3ccc(F)c(F)c3)c3ccccc3c2=O)cc1 -11.2%
CCCN1Cc2cccc(C(=O)Nc3ccccc3C(=O)OC)c2C1=O -9.9%
CCOc1ccc(NC(=O)CN2CCN(CC(=O)Nc3ccc(F)cc3F)CC2)cc1 8.86%
Cc1ccc(O)cc1 5.76%
CCS(=O)(=O)c1cccc(C(=O)Nc2ccc(-c3nc4ccccc4s3)c(O)c2)c1 -1.51%
COc1ccc(-c2csc(-c3c(N)c(C(=O)c4ccccc4)n4ccccc34)n2)cc1OC -8.34%
COc1ccccc1N1CCN(C(=O)CSc2nc3ccccc3nc2Cc2ccc(C)cc2)CC1 -12.3%
COc1cc(NS(=O)(=O)c2cc(Br)cc3c2N(C(=O)C2CC2)CC3)cc(OC)c1 -96.2%
CN(C)c1nc(N(C)C)nc(N(C)C)n1
COc1cc(N2CCC(C(N)=O)CC2)ccc1Nc1nc(N)c(Cl)c(Nc2ccccc2S(=O)(=O)C(C)C)n1 -30.2%
CCN(CCCNC(=O)c1nn(-c2ccc(OC)c(Cl)c2)c(=O)c2c1c1ccccc1n2C)c1ccccc1 -17.2%
Cc1ccc(CN2CCN(C3CCN(S(=O)(=O)N(C)C)CC3)C(=O)C2=O)cc1 3.18%
CC1CCN(C(=O)Cn2c(SCC(=O)Nc3ccc(F)cc3)nc3ccccc32)CC1 0%
COc1ccc(OC)c(CNC(=O)CSc2c3c(nc4cc(Cl)ccc24)CCCC3)c1 -21%
O=C(Nc1cccc(C(F)(F)F)c1)Nc1ccc2snnc2c1 -62%
CCOC(=O)c1c(NC(=O)c2ccc(S(=O)(=O)N(CC)CC)cc2)sc2c1CCCCC2 -17.4%
Cc1cc(S(=O)(=O)Nc2ccc(O)c(Sc3nc4ccccc4s3)c2)ccc1Cl -18.4%
CCc1ccc(CN(Cc2cn[nH]c2-c2ccc(OC)cc2)C(=O)Nc2ccc(Br)cc2)cc1 -58.1%
CN(C)c1ccc(C(CNS(=O)(=O)c2ccc(F)cc2F)N2CCOCC2)cc1 (stereo not drawn) -21.1%
Cc1ccc(CCNC(=O)CN(c2ccc(C(C)C)cc2)S(=O)(=O)c2c(C)nn(C)c2C)cc1 -10.9%
CCN(CC)C(=O)CSc1nc2cc3c(cc2c(=O)n1CCCC(=O)NCc1ccc(OC)cc1)OCO3 -15.3%
CCOc1ccc(Cc2cc([C@@H]3O[C@H](CO)[C@@H](O)[C@H](O)[C@@H]3O)ccc2Cl)cc1 -3.89%
